Measurements reported in patent US20220403048A1, “BINDING MOLECULES TO ARGINASE II [ARG2]” (Cancer Research Technology Limited, priority 2019, published 2022).

Legend:
human ARG2 = target: T1, human ARG2 (Homo sapiens, UniProt P78540, E275H/R327K); test: Bio-Layer Interferometry (OctetRED) binding kinetics, human ARG2; conditions: Fab analyte, biotinylated human ARG2 on streptavidin tip, 1:1 binding fit
T1 construct: His10 (after a GGG linker) (C); made in house; host or cells: E. coli BL21 (DE3)
T1 sequence (P78540 23-354 E275H/R327K): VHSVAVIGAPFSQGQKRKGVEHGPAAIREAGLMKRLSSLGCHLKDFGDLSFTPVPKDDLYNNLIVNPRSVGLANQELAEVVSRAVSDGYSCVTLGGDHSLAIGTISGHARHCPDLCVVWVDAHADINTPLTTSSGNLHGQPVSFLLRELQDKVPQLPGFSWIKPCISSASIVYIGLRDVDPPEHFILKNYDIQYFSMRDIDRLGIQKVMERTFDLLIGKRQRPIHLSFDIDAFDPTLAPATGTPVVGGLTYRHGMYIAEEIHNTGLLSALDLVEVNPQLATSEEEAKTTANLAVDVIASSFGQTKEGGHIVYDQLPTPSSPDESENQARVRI
Source text: The OctetRED (Pall ForteBio) instrument was used to assess the kinetic parameters of the interactions between C0020187 and recombinantly produced human ARG2, cynomolgus ARG2 and human ARG1. The Octet biosensor uses an optical analytical technique that analyses the interference pattern of white light reflected from two surfaces: a layer of immobilised protein on the sensor tip, and an internal reference layer. Any changes in binding at the biosensor tip result in a shift in interference pattern, which can be measured in real time. Molecules associating with or dissociating from ligands at the biosensor tip shift the interference pattern and generate a response on the Octet system which is recorded by the acquisition software.
Typically, a defined concentration of the analyte species is brought into contact with the coupled ligand and any binding is detected as an increased in signal (association phase). […]
An Octet Kinetics Buffer (PBS containing 0.01% BSA and 0.002% Tween20) is typically used as the diluent buffer for the analyte samples and as the flow buffer during the dissociation phase. The experimental data is recorded over time as shift in interference pattern (nm) over time, which is directly proportional to the optical thickness at the biosensor tip, which in turn is an approximate measure of the mass of analyte bound. […]

ARG2 = target: T2, ARG2 (Homo sapiens, UniProt P78540); test: Size-exclusion chromatography of ARG2-Fab binding stoichiometry; set-up: human ARG2 (aa23-354); His10 (C); made in house; host or cells: E. coli BL21 (DE3); conditions: FIG. 23A
T2 sequence (P78540 23-354): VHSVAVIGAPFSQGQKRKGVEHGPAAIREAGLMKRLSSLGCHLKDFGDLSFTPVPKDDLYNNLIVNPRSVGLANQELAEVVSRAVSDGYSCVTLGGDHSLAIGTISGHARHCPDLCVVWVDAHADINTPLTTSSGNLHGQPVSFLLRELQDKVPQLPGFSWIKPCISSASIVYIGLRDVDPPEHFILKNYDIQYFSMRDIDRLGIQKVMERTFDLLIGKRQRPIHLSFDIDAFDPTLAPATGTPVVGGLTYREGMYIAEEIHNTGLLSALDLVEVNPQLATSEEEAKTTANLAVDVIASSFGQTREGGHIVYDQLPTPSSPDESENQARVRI
Method: ARG2 and Fabs were analysed at concentrations of 8 μM (referring to monomers) in SEC buffer containing 25 mM tris at pH 7.4 and 150 mM NaCl. ARG2-Fab complexes were formed by mixing both ARG2 and Fabs at concentrations of 8 μM (referring to monomers) in SEC buffer and incubation on ice for 1 h. For size-exclusion chromatography, […] of sample were injected into a 100 μl loop connected to a Superose 6 Increase 10/300 GL column (GE Healthcare) which was mounted to an AKTAexpress FPLC system (GE Healthcare). The column was equilibrated in SEC buffer, and SEC was performed at a flow rate of 0.5 ml/min. Molecular-weight estimates are based on the retention volumes seen for β-amylase, bovine serum albumin and carbonic anhydrase, which were analysed on the same FPLC system under identical conditions.

B1: C0020187: anti-ARG2 antibody, parent lead isolation clone, VH SEQ ID NO: 12, VL SEQ ID NO: 17 (antibody, listed as Homo sapiens, V domains shown)
VH: [about 100 residues not given here]LRADLGLYMDLWGRGTLVTVSS
VL: QSVLTQPPSVSAAPGQKVTISCSGSSSNIGNHYVSWYQQLPGTAPKLLIYDNSERPSGIPDRFSGSKSGTSATLGITGLQTGDEADYYCGTWDSSLSALVFGGGTKLTVL
modifications: C0020187
Q: With B1 as the molecule, how does the ka (human ARG2) read?
A: The ka was 69200 M⁻¹ s⁻¹.

Q: And the kd (human ARG2)?
A: Its kd is 0.000577 s⁻¹.

Q: And the “size-exclusion peak of 1:1 molar mixture of ARG2 and Fab” value (ARG2; 8 μM each)?
A: Its value is 150 kDa.

Q: What about the “Fabs bound to one ARG2 trimer” value (ARG2; from size-exclusion profile) of the same molecule?
A: The value was “one fab”.
